Assay results as given in publication PMC3428324.
No constants are given. Whether binding was seen depends on the method and setting. In cells and extracts the contact can be indirect. Some results given as binding are weak or reduced against the parent protein; the word gives no strength.

Protein sequences, listed by entry. Tags and fused reporters are not part of them.
UniProt Q16531: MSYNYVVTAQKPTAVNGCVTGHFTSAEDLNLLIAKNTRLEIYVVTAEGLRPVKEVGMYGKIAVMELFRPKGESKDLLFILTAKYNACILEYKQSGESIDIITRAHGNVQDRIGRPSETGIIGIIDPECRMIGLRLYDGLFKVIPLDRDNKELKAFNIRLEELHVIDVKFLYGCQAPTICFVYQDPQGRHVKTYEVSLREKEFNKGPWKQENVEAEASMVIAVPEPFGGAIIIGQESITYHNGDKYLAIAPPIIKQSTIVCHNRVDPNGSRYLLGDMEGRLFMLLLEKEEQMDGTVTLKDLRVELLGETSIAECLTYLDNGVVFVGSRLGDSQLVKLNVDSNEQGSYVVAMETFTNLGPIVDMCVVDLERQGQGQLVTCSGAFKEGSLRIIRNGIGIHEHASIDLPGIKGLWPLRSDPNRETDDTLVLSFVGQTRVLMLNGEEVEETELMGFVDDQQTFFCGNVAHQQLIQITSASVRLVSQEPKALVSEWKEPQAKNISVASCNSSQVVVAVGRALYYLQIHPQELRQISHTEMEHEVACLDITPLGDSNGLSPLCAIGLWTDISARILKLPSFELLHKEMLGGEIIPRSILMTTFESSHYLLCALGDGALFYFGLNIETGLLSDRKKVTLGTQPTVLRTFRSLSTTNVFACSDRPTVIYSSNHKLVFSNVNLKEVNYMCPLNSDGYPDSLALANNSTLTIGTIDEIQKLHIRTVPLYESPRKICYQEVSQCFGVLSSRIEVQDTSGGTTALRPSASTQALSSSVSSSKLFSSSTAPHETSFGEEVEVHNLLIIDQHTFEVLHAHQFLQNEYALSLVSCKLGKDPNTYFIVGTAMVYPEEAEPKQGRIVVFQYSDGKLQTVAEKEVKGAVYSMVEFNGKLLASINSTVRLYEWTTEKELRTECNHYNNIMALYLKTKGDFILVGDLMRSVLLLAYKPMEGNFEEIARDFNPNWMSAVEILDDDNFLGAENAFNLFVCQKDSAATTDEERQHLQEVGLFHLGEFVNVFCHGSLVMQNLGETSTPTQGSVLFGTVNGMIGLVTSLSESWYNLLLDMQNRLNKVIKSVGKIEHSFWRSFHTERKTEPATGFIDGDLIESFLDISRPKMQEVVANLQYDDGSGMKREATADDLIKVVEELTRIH
UniProt P43249: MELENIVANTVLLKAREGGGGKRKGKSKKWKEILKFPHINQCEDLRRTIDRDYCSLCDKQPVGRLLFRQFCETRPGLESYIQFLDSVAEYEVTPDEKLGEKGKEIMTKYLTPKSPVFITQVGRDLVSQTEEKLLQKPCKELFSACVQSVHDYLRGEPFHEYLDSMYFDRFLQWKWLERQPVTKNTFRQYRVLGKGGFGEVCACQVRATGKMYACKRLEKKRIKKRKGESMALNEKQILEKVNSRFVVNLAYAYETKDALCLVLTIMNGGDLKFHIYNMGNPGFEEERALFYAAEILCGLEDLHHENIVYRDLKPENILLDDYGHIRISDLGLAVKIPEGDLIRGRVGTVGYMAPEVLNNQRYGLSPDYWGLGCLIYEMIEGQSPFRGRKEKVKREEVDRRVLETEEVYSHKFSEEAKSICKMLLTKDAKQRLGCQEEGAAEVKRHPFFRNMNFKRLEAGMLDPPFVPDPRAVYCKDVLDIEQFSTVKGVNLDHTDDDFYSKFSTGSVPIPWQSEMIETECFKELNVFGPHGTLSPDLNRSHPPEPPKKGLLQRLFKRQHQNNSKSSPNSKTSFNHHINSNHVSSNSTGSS
UniProt P21146: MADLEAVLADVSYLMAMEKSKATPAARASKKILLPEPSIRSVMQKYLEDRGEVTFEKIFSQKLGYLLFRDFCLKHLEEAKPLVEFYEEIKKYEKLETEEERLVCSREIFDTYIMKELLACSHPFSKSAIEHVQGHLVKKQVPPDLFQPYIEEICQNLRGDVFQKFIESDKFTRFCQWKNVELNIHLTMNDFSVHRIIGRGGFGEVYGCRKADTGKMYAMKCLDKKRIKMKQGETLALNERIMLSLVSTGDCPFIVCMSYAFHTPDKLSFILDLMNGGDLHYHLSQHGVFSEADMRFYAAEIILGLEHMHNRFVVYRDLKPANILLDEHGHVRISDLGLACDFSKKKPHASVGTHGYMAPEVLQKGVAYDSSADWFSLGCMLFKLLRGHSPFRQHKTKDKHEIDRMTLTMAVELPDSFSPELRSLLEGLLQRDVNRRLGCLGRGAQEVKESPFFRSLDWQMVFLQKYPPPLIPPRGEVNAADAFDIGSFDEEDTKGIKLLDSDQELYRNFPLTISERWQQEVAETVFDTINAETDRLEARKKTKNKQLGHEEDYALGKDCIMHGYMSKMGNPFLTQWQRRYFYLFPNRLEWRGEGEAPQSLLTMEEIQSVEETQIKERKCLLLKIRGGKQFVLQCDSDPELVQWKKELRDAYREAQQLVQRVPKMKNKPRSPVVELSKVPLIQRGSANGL
UniProt P43250: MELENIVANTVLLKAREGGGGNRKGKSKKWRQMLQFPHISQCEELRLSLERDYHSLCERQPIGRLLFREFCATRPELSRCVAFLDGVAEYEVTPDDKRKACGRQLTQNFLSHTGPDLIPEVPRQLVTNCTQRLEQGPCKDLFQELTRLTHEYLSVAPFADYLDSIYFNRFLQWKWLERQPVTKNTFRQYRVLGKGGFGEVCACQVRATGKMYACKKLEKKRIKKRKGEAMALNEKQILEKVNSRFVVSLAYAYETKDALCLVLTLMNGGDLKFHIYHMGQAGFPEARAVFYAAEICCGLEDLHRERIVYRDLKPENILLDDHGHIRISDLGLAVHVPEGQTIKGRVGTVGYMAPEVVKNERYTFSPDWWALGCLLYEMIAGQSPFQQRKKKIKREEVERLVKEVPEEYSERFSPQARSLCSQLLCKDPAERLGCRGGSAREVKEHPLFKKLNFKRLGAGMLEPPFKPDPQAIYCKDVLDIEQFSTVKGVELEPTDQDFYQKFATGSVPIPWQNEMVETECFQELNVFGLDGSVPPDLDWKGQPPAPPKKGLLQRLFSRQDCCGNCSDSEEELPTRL
UniProt P34947: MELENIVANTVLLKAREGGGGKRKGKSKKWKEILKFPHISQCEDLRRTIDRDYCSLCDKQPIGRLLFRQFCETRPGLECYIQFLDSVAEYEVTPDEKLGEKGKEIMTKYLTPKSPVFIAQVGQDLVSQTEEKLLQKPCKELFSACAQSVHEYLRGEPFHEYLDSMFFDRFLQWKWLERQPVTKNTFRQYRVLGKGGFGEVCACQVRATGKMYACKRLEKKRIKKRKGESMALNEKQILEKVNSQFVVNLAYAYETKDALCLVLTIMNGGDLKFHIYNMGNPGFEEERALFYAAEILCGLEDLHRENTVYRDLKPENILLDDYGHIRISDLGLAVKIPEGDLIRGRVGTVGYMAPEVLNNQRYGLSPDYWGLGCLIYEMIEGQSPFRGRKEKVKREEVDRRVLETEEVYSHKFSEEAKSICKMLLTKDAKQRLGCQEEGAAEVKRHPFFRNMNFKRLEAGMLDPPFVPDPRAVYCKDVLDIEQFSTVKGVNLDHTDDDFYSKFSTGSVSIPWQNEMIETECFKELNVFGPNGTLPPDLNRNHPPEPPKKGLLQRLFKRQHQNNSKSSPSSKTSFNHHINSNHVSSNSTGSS
UniProt Q92466: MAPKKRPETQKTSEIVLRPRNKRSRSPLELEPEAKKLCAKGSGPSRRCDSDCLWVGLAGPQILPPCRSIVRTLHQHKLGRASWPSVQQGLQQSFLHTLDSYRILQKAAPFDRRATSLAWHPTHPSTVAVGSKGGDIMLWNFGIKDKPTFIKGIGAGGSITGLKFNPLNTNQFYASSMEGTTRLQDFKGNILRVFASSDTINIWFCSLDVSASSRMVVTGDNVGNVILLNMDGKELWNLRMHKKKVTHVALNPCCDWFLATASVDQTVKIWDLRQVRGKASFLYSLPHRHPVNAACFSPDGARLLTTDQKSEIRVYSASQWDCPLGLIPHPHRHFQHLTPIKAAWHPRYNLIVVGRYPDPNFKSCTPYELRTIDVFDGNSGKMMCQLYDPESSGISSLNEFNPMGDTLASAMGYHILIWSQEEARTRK
UniProt Q13620: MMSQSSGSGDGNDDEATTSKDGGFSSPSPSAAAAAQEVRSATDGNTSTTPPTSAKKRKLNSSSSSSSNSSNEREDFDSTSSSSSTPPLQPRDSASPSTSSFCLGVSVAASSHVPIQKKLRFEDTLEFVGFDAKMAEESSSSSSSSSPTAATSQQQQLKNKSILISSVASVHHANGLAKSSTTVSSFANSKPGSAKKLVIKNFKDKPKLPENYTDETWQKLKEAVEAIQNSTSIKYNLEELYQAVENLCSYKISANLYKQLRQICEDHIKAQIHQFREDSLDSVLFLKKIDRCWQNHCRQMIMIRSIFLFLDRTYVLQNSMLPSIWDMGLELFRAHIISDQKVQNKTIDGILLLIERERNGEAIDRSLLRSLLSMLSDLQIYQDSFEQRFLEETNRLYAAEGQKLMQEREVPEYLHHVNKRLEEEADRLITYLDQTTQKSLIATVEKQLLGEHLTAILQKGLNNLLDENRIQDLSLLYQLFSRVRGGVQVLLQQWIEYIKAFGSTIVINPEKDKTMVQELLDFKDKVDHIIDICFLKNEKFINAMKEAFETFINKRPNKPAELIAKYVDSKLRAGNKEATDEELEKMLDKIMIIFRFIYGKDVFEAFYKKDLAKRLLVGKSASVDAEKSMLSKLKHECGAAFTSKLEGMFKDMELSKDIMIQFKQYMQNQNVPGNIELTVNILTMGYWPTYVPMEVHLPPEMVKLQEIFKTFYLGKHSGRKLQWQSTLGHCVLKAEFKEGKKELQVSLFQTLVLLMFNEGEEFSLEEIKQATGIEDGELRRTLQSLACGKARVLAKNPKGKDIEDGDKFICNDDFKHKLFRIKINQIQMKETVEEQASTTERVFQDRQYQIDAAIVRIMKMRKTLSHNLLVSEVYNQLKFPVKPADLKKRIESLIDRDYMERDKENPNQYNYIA

What was measured:
[1] = target: damaged DNA-binding protein 1 (DDB1), endogenous (human (endogenous in MDA-MB-231, HUVEC and 293 T)) (UniProt Q16531); assay: co-IP; endogenous DDB1 complexes precipitated from untransfected 293 T cell lysate with the anti-DDB1 antibody; Western blotting with GRK5 antibody; mouse IgG as control
[2] = target: GRK5-Flag (Flag-tagged G protein-coupled receptor kinase 5) (bovine) (UniProt P43249); assay: co-IP; lysate of MDA-MB-231 cells stably expressing GFP or GRK5-Flag; anti-FLAG M2 affinity gel, 4°C, 8 h; Western blotting
[3] = target: GRK5-Flag (Flag-tagged G protein-coupled receptor kinase 5) (bovine) (UniProt P43249); assay: co-IP; lysates of transiently transfected 293 T cells (in Fig. 3D also with shRNA plasmids against DDB1 or CUL4A); the Flag-tagged protein precipitated with anti-FLAG M2 affinity gel, 4°C, 8 h; Western blotting
GRK2-Flag (bovine) = GRK2-Flag (bovine) (UniProt P21146); assay: as above
GRK6-Flag (human) = GRK6-Flag (human) (UniProt P43250); assay: as above
DDB1-Flag = DDB1-Flag (UniProt Q16531); assay: as above
GRK5-HA (bovine) = GRK5-HA (bovine) (UniProt P43249); assay: co-IP; lysates of transiently co-transfected 293 T cells; the HA-tagged protein precipitated with anti-HA agarose, 4°C, 8 h; Western blotting

Row | binding [2] | binding [3] | Substance | other results
1 | – | – | endogenous GRK5 (from UniProt P34947 1-590) (enzyme) | binding [1]: binds
2 | binds | binds | Damage DNA binding protein 2 (DDB2), endogenous (from UniProt Q92466 1-427) | –
3 | binds | binds | damaged DNA-binding protein 1 (DDB1), endogenous (from UniProt Q16531 1-1140) | binding (GRK2-Flag (bovine)): no binding; binding (GRK6-Flag (human)): binds
4 | – | – | GRK5 (co-expressed with DDB1-Flag and CUL4A-HA, Fig. 3A and 3B) (from UniProt P43249 1-590) (enzyme) | binding (DDB1-Flag): binds
5 | binds | binds | CUL4B, endogenous (from UniProt Q13620 1-913) | –
6 | – | – | DDB1-Flag (from UniProt Q16531 1-1140) | binding (GRK5-HA (bovine)): binds
